Among all 280,000 compounds or so, about 100 (0.036%) were called active. This list was built around the results that the source calls inconclusive (neither active nor inactive); the mix of calls is not that of the screen. The call rests on the fitted dose curve; in most records, active means well fitted inhibition curve with a large enough effect in the signal ratio, with a control signal flat (not every such curve was filed as active); inconclusive means small, poorly fitted or top-dose-only effect, or effect the other way, or a change in a side signal; inactive means no such curve, though single readings can be large or run the other way; the % refers to the signal ratio. Where the call is inconclusive, the potency comes from a doubtful curve fit. “Side channel” marks fits to a control or component signal instead of the main read-out.
What follows are molecules tested against Muscleblind-like protein 1 (Homo sapiens) (UniProt Q9NR56) (assay: qHTS Assay for Inhibitors of MBNL1-poly(CUG) RNA binding). Conditions: TR-FRET MBNL1-His/biotin-(CUG)12 binding, 665/545 ratio; activity change, negative = inhibition: at 57.5 µM (top of the series).
Chain of UniProt Q9NR56 (Q9NR56 whole entry, looked up): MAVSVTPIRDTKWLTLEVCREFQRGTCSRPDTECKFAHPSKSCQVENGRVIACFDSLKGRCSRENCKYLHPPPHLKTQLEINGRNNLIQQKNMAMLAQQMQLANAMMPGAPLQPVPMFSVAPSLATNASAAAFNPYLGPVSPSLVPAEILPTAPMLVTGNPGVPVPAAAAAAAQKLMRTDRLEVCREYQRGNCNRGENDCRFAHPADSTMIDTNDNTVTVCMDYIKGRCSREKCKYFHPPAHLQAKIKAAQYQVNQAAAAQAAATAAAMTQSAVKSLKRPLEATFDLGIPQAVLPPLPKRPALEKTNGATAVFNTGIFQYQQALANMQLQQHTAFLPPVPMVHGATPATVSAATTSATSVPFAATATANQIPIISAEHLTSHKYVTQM
Outline: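 Inhibition of protein-RNA binding appears as loss of TR-FRET between terbium anti-His antibody on MBNL1-His and streptavidin-XL665 on biotin-(CUG)12. Activity is normalized to buffer-only and uninhibited-complex controls.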
`Cc1c(C)c2c(OCC(=O)NCC(=O)NCC(=O)O)cc3c(c2oc1=O)CCC(C)(C)O3` was tested, and the Potency was inconclusive: 28.2 µM [quencher, side channel, single point].
For `COC(=O)Cn1c(O)c(N=NC(=O)CNC(=O)COc2cccc(C)c2)c2ccccc21`, the Potency was inconclusive: 4.47 µM [quencher, side channel, full curve].
For `CC1=C(C#N)c2nc(N)c(C#N)c(C)c2/C1=C\c1ccc(-c2ccccc2C(=O)O)o1`, the “activity change, negative = inhibition” value was inactive: 28.3%.
For `CCn1c2ccccc2c2nc3cc(C(=O)O)ccc3nc21`, the Potency was inconclusive: 10 µM [quencher, side channel, partial curve].
`CCOc1cc(C(=O)N/N=C\c2cn(CC)nc2C)cc(OCC)c1OCC` was tested, and the Potency was inconclusive: 1 µM [quencher, side channel, full curve].
For `COc1ccccc1Nc1nc(-c2sc(NC(=O)c3ccc([N+](=O)[O-])cc3)nc2C)cs1`, the Potency was inconclusive: 20 µM [quencher, side channel, single point].
With `COc1ccc(C(=O)c2cc3c(cc2[N+](=O)[O-])OCCO3)cc1` the Potency was inconclusive: 12.6 µM [quencher, side channel, partial curve].
In the case of `O=C(c1ccc(N2CCCC2)c([N+](=O)[O-])c1)N1CCN(c2ccccn2)CC1`, the Potency is reported as inconclusive: 8.91 µM [quencher, side channel, partial curve].
For `COc1ccc(C(=O)NC(=S)N2CCNC(=O)C2)cc1Br`, the “activity change, negative = inhibition” value was inactive: -0.0077%.
For `COc1ccccc1N(C(=O)Cn1nnc(-c2ccc(C)o2)n1)C(C(=O)NC1CCCC1)c1ccncc1` (stereo not drawn), the “activity change, negative = inhibition” value was inactive: -6.93%.
For `O=[N+]([O-])c1ccc(OCc2cnc(Cl)s2)c([N+](=O)[O-])c1`, the Potency was inconclusive: 12.6 µM [quencher, partial curve, poor fit].
For `O=C1NCCN/C1=C\C(=O)c1ccccc1`, the Potency was inconclusive: 20 µM [quencher, partial curve].
For `CC(=O)c1cccc(NC(=O)c2ccc3ccccc3c2)c1`, the Potency was inconclusive: 39.8 µM [quencher, side channel, single point].
In the case of `Nc1ccc(C(=O)OC2CCOC2=O)cc1[N+](=O)[O-]` (stereo not drawn), the Potency is reported as inconclusive: 17.8 µM [quencher, side channel, partial curve].
`CCOC(=O)c1cc(-c2ccco2)nc2c1c(C)nn2CCC#N` was tested, and the Potency was inconclusive: 11.2 µM [quencher, side channel, partial curve].
In the case of `CC(=O)/C(=N/Nc1ccccc1)Sc1nnc(C(O)c2ccccc2)n1-c1ccccc1` (stereo not drawn), the “activity change, negative = inhibition” value is reported as inactive: 12.4%.
`O=C(Nc1ccc2c(c1)CCC2)c1ccc(Br)o1` was tested, and the “activity change, negative = inhibition” value was inactive: -5.82%.
`Cc1ccsc1-c1ccnc(-n2cccc2)n1` was tested, and the Potency was inconclusive: 15.8 µM [quencher, side channel, partial curve].
With `O=C(NC1CCN(Cc2ccccc2)CC1)C(NS(=O)(=O)c1cccc2nsnc12)c1ccccc1` (stereo not drawn) the Potency was inconclusive: 14.1 µM [quencher, side channel, partial curve].
With `CCOc1ccc(NC(=O)COc2ccccc2)c([N+](=O)[O-])c1` the Potency was inconclusive: 14.1 µM [quencher, partial curve].
In the case of `COc1ccc2cc(C(=O)C3CCCN(C(=O)c4cc5nc(C)cc(C)n5n4)C3)ccc2c1` (stereo not drawn), the Potency is reported as inconclusive: 20 µM [quencher, single point].
`NC(=O)Cn1cc(/C=N\NS(=O)(=O)c2cccc([N+](=O)[O-])c2)c2ccccc21` was tested, and the Potency was inconclusive: 14.1 µM [quencher, side channel, partial curve].
`CC1=NN(C(=O)c2cccnc2)C(O)(C(F)(F)F)C1` (stereo not drawn) was tested, and the “activity change, negative = inhibition” value was inactive: -8.22%.
For `COc1cc2c(cc1OC)C(C)N(C(=O)c1cccc([N+](=O)[O-])c1)CC2` (stereo not drawn), the Potency was inconclusive: 20 µM [quencher, side channel, partial curve].
For `COc1cc(NC(=O)c2cc([N+](=O)[O-])ccc2NC(=O)CNC2CCCCC2C)cc(OC)c1` (stereo not drawn), the Potency was inconclusive: 14.1 µM [quencher, side channel, partial curve].
For `COc1ccc(NC(=O)c2ccc3c(c2)C(=O)N(CC2CCCO2)C3=O)c(OC)c1` (stereo not drawn), the Potency was inconclusive: 8.91 µM [quencher, side channel, partial curve].
With `Cc1ccc(CSc2nc3ccncc3n2CC(=O)Nc2cc(C)cc(C)c2)cc1` the Potency was inconclusive: 22.4 µM [fluorescent, side channel, single point].
With `c1cncc(Nc2c3ccccc3nc3ccccc23)c1` the Potency was inconclusive: 12.6 µM [quencher, side channel, partial curve].
`Cn1c(NC(=S)Nc2ccccc2)nc2ccccc21` was tested, and the Potency was inconclusive: 39.8 µM [fluorescent, side channel, single point].
`Cn1cccc1/C=C1\SC(=S)N(NC(=O)c2cccc(Cl)c2)C1=O` was tested, and the Potency was inconclusive: 31.6 µM [quencher, single point].
In the case of `CC(Cc1ccccc1)NC(=O)c1ccc([N+](=O)[O-])cc1` (stereo not drawn), the Potency is reported as inconclusive: 2.24 µM [activator, single point].
`O=C(c1ccco1)N1CCN(S(=O)(=O)c2cccc([N+](=O)[O-])c2)CC1` was tested, and the Potency was inconclusive: 11.2 µM [quencher, side channel, partial curve].
For `O=C(Nc1cccc(-c2ccc3nncn3n2)c1)c1ccco1`, the Potency was inconclusive: 20 µM [quencher, side channel, partial curve].
With `CCCN1C(=O)/C(=C2\SC(N3CCCCC3)=NC2=O)c2ccccc21` the Potency was inconclusive: 10 µM [quencher, side channel, partial curve].
In the case of `O=C(NCCCl)Nc1cc([N+](=O)[O-])ccc1Cl`, the Potency is reported as inconclusive: 14.1 µM [quencher, side channel, partial curve].
For `O=C(COc1ccc(F)cc1)NNC(=O)c1cc2ccccc2oc1=O`, the Potency was inconclusive: 8.91 µM [quencher, full curve, poor fit].
In the case of `CN(C)CCCNc1ccc(-c2nn(C)c(=O)c3ccccc23)cc1[N+](=O)[O-]`, the Potency is reported as inconclusive: 2.82 µM [quencher, side channel, full curve].
In the case of `Cc1c(N=Cc2nc3ccccc3[nH]2)c(=O)n(-c2ccccc2)n1C`, the Potency is reported as inconclusive: 14.1 µM [quencher, side channel, partial curve].
`Cn1ncc([N+](=O)[O-])c1C(=O)N/N=C/c1ccc(F)cc1` was tested, and the Potency was inconclusive: 22.4 µM [quencher, side channel, partial curve].
In the case of `Cc1nnc(N2C(=O)C(=O)/C(=C(/O)c3ccc4c(c3)OCCO4)C2c2ccc([N+](=O)[O-])cc2)s1` (stereo not drawn), the Potency is reported as inconclusive: 25.1 µM [quencher, side channel, partial curve].
For `O=C(NCCN1CCN(c2ccccc2)CC1)c1cccn2c(=O)c3ccccc3nc12`, the “activity change, negative = inhibition” value was inactive: 11.1%.
For `CC1(C(=O)OCc2cc(=O)n3cc(Br)ccc3n2)CC1(Cl)Cl` (stereo not drawn), the Potency was inconclusive: 11.2 µM [quencher, side channel, partial curve].
With `CC(C)n1c(O)c(N=NC(=O)CNC(=O)Cc2ccc(Cl)cc2)c2ccccc21` the Potency was inconclusive: 12.6 µM [quencher, side channel, partial curve].
`CCCn1c(=O)c2c(C(F)(F)F)cc(-c3ccco3)nc2n(CCC)c1=O` was tested, and the Potency was inconclusive: 39.8 µM [fluorescent, side channel, single point].
With `COc1ccc(NC(=O)CCCCCN2C(=O)c3cccc([N+](=O)[O-])c3C2=O)c(OC)c1` the Potency was inconclusive: 12.6 µM [quencher, side channel, partial curve].
In the case of `CN1C(=O)CSc2ccc(NC(=O)N3CCN(c4ccccn4)CC3)cc21`, the “activity change, negative = inhibition” value is reported as inactive: -8.16%.
With `Cc1ccc(NC(=O)CSc2sc3c(O)cc(=O)[nH]c3c2C#N)cc1C` the Potency was inconclusive: 14.1 µM [quencher, side channel, partial curve].
With `Cc1nc2cc(NC(=O)Nc3cccc([N+](=O)[O-])c3)ccc2n1C` the Potency was inconclusive: 6.31 µM [quencher, side channel, partial curve].
In the case of `COC(=O)C1=C(NC(C)=O)CCS1`, the Potency is reported as inconclusive: 0.1 µM [fluorescent, side channel, full curve, poor fit].
For `CCCSc1nc(C)nc2c1c(=O)n(C)c(=O)n2C`, the “activity change, negative = inhibition” value was inactive: -9%.
In the case of `COc1ccc(/C=N/NC(=O)Cc2cccs2)cc1`, the Potency is reported as inconclusive: 35.5 µM [quencher, side channel, single point].
With `COc1ccc(CCN2CCCC(CN(C)C(=O)c3ccoc3)C2)cc1` (stereo not drawn) the “activity change, negative = inhibition” value was inactive: 0.0376%.
In the case of `COC(=O)CCC(=O)OC1(C)C(=O)C2=CN(CCN3CCOCC3)C(c3ccc(OC)cc3)=CC2=C(Br)C1=O` (stereo not drawn), the Potency is reported as inconclusive: 28.2 µM [quencher, single point].
For `O=C(Nc1ccon1)c1ccc(S(=O)(=O)N2CCCCCC2)cc1`, the “activity change, negative = inhibition” value was inactive: 2.41%.
With `CCOc1ccc2c(c1)c(N=NC(N)=S)c(O)n2C` the Potency was inconclusive: 2.24 µM [quencher, side channel, full curve].
`COc1cc(C=Nc2cccc(C)c2)c(O)c([N+](=O)[O-])c1` was tested, and the Potency was inconclusive: 28.2 µM [quencher, single point].
In the case of `CCN1C2=NCCCN2c2cc(C)c(C)cc21`, the Potency is reported as inconclusive: 0.0891 µM [quencher, side channel, full curve, poor fit].
`COCC(C)n1c(SCC(=O)Nc2oc(C)c3c(C)n[nH]c(=O)c23)nc2ccccc2c1=O` (stereo not drawn) was tested, and the Potency was inconclusive: 25.1 µM [quencher, single point].
On the % scale 0 is the no-effect control and ±100 the full control effect; potency means the concentration at half of the fitted maximal effect; tags describe the fitted curve by direction and shape or compound fluorescence and quenching.
